Structures are written as SMILES. This is one part of the list. Most values come without repeats; read them as rough.

23 compounds from the supplement of paper PMC4604168 (melanoma cell lines) can be followed below.
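Also: cell number obtained by counting DAPI-stained nuclei in high-throughput microscope images with image analysis software, screen run in 1,536-well plates.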

In this assay the test system is A2058. As to the kind of experiment: cell count relative to DMSO control; melanoma cells; higher = more viable cells. The note with it: library dose: low library concentration; 72 h.
The compound `O=C(/C=C/c1cccnc1)NCCCCC1CCN(C(=O)c2ccccc2)CC1` + CN(C)S(=O)(=O)c1ccc2c(c1)/C(=C/c1cc3c([nH]1)CCCC3)C(=O)N2 [SU6656] (first compound 0.01 µM, partner dose 0.4 µM) had a cell count of 107%.
`O=C(/C=C/c1cccnc1)NCCCCC1CCN(C(=O)c2ccccc2)CC1` + COc1cc(Nc2ncc(F)c(Nc3ccc4c(n3)NC(=O)C(C)(C)O4)n2)cc(OC)c1OC [Tamatinib] (first compound 0.01 µM, partner dose 0.4 µM) returned a cell count of 85.6%.
Then `CC1(C)CCC(c2ccc(Cl)cc2)=C(CN2CCN(c3ccc(C(=O)NS(=O)(=O)c4ccc(N[C@H](CCN5CCOCC5)CSc5ccccc5)c(S(=O)(=O)C(F)(F)F)c4)cc3)CC2)C1` + O=C(O)c1ccc2c(c1)nc(Nc1cccc(Cl)c1)c1ccncc12 [CX4945] (first compound 0.4 µM, partner dose 0.4 µM), with 85.3%.
With `Cc1ccc(Nc2nccc(N(C)c3ccc4c(C)n(C)nc4c3)n2)cc1S(N)(=O)=O` [Pazopanib] + C[C@@H]1CCN(C(=O)CC#N)C[C@@H]1N(C)c1ncnc2[nH]ccc12 [CP690550] (first compound 0.4 µM, partner dose 1 µM) the figure was 94.2%.
`Cc1ccc(Nc2nccc(N(C)c3ccc4c(C)n(C)nc4c3)n2)cc1S(N)(=O)=O` [Pazopanib] + Nc1nc(F)nc2c1ncn2[C@@H]1O[C@H](CO)[C@@H](O)[C@@H]1O [fludarabine] (first compound 0.4 µM, partner dose 0.2 µM): the cell count worked out at 83.8%.
Then `O=C(/C=C/c1cccnc1)NCCCCC1CCN(C(=O)c2ccccc2)CC1` + Cn1nnc2c(C(N)=O)ncn2c1=O [temozolomide] (first compound 0.01 µM, partner dose 2 µM), with 94.5%; and `O=C(/C=C/c1cccnc1)NCCCCC1CCN(C(=O)c2ccccc2)CC1` + CO[C@H]1C[C@@H]2CC[C@@H](C)[C@@](O)(O2)C(=O)C(=O)N2CCCC[C@H]2C(=O)O[C@H]([C@H](C)C[C@@H]2CC[C@@H](OCCO)[C@H](OC)C2)CC(=O)[C@H](C)/C=C(\C)[C@@H](O)[C@@H](OC)C(=O)[C@H](C)C[C@H](C)/C=C/C=C/C=C/1C [everolimus] (first compound 0.01 µM, partner dose 0.02 µM), with 85.7%; and `O=C(/C=C/c1cccnc1)NCCCCC1CCN(C(=O)c2ccccc2)CC1` + CN(c1ncccc1CNc1nc(Nc2ccc3c(c2)CC(=O)N3)ncc1C(F)(F)F)S(C)(=O)=O [PF562271] (first compound 0.01 µM, partner dose 0.08 µM), with 88%.
Then `Cc1ccc(Nc2nccc(N(C)c3ccc4c(C)n(C)nc4c3)n2)cc1S(N)(=O)=O` [Pazopanib] + C[C@]1(c2nc3c(C(N)=O)cccc3[nH]2)CCCN1 [Veliparib] (first compound 0.4 µM, partner dose 1.4 µM), with 76.7%; and `Cc1ccc(Nc2nccc(N(C)c3ccc4c(C)n(C)nc4c3)n2)cc1S(N)(=O)=O` [Pazopanib] + CN(c1ncccc1CNc1nc(Nc2ccc3c(c2)CC(=O)N3)ncc1C(F)(F)F)S(C)(=O)=O [PF562271] (first compound 0.4 µM, partner dose 0.08 µM), with 91.9%; and `CC1(C)CCC(c2ccc(Cl)cc2)=C(CN2CCN(c3ccc(C(=O)NS(=O)(=O)c4ccc(N[C@H](CCN5CCOCC5)CSc5ccccc5)c(S(=O)(=O)C(F)(F)F)c4)cc3)CC2)C1` + CN1CCN(c2ccc3nc(-c4c(N)c5c(F)cccc5[nH]c4=O)[nH]c3c2)CC1 [Dovitinib] (first compound 0.4 µM, partner dose 0.1 µM), with 90%.
The compound `O=C(/C=C/c1cccnc1)NCCCCC1CCN(C(=O)c2ccccc2)CC1` + CN1CCN(c2ccc3nc(-c4c(N)c5c(F)cccc5[nH]c4=O)[nH]c3c2)CC1 [Dovitinib] (first compound 0.01 µM, partner dose 0.1 µM) registered a cell count of 102%.
Then `Cc1ccc(Nc2nccc(N(C)c3ccc4c(C)n(C)nc4c3)n2)cc1S(N)(=O)=O` [Pazopanib] + Cn1cnc2c(F)c(Nc3ccc(Br)cc3Cl)c(C(=O)NOCCO)cc21 [selumetinib] (first compound 0.4 µM, partner dose 0.015 µM), with 119%.
Then `Cc1ccc(Nc2nccc(N(C)c3ccc4c(C)n(C)nc4c3)n2)cc1S(N)(=O)=O` [Pazopanib] + Nc1ccn([C@@H]2O[C@H](CO)[C@@H](O)C2(F)F)c(=O)n1 [gemcitabine] (first compound 0.4 µM, partner dose 0.0004 µM), with 96.4%; and `Cc1ccc(Nc2nccc(N(C)c3ccc4c(C)n(C)nc4c3)n2)cc1S(N)(=O)=O` [Pazopanib] + O=C(O)c1ccc2c(c1)nc(Nc1cccc(Cl)c1)c1ccncc12 [CX4945] (first compound 0.4 µM, partner dose 0.4 µM), with 92%.
For the compound `Cc1ccc(Nc2nccc(N(C)c3ccc4c(C)n(C)nc4c3)n2)cc1S(N)(=O)=O` [Pazopanib] + CC(C)(C)c1cnc(CSc2cnc(NC(=O)C3CCNCC3)s2)o1 [SNS-032] (first compound 0.4 µM, partner dose 0.01 µM), the cell count came out at 99.9%.
The compound `Cc1ccc(Nc2nccc(N(C)c3ccc4c(C)n(C)nc4c3)n2)cc1S(N)(=O)=O` [Pazopanib] + Cn1sc(=O)n(Cc2ccccc2)c1=O [TDZD-8] (first compound 0.4 µM, partner dose 0.4 µM) returned a cell count of 94.9%.
With `Cc1ccc(Nc2nccc(N(C)c3ccc4c(C)n(C)nc4c3)n2)cc1S(N)(=O)=O` [Pazopanib] + C[C@@H](Oc1cc(-c2cnn(C3CCNCC3)c2)cnc1N)c1c(Cl)ccc(F)c1Cl [Crizotinib] (first compound 0.4 µM, partner dose 0.2 µM) the figure was 92.7%; with `CC1(C)CCC(c2ccc(Cl)cc2)=C(CN2CCN(c3ccc(C(=O)NS(=O)(=O)c4ccc(N[C@H](CCN5CCOCC5)CSc5ccccc5)c(S(=O)(=O)C(F)(F)F)c4)cc3)CC2)C1` + NC1(c2ccc(-c3nc4ccn5c(=O)[nH]nc5c4cc3-c3ccccc3)cc2)CCC1 [MK2206] (first compound 0.4 µM, partner dose 0.4 µM), 78.8%; with `Cc1ccc(Nc2nccc(N(C)c3ccc4c(C)n(C)nc4c3)n2)cc1S(N)(=O)=O` [Pazopanib] + NCC(=O)Nc1ccc(-n2nc(C(F)(F)F)cc2-c2ccc3c(ccc4ccccc43)c2)cc1 [OSU03012] (first compound 0.4 µM, partner dose 1 µM), 104%.
Then `Cc1ccc(Nc2nccc(N(C)c3ccc4c(C)n(C)nc4c3)n2)cc1S(N)(=O)=O` [Pazopanib] + Cn1c(=O)n(-c2ccc(C(C)(C)C#N)cc2)c2c3cc(-c4cnc5ccccc5c4)ccc3ncc21 [NVP-BEZ235] (first compound 0.4 µM, partner dose 0.004 µM), with 96.5%; and `Cc1ccc(Nc2nccc(N(C)c3ccc4c(C)n(C)nc4c3)n2)cc1S(N)(=O)=O` [Pazopanib] + Cn1nnc2c(C(N)=O)ncn2c1=O [temozolomide] (first compound 0.4 µM, partner dose 2 µM), with 84.9%.
`O=C(/C=C/c1cccnc1)NCCCCC1CCN(C(=O)c2ccccc2)CC1` + Cc1ccc(NC(=O)c2cccc(N(C)C)c2)cc1NC(=O)c1ccc(O)cc1 [ZM336372] (first compound 0.01 µM, partner dose 2 µM) returned a cell count of 119%.
